Data: the supplement of paper PMC8728848
The list shows a part of the results.

Key:
Experiment in all cases: glycan array binding signal (z-score within array); higher = stronger binding
Details in all cases: glycan notation: IUPAC condensed, linker removed
[1] = target: Gal(b1-4)GlcNAc(b1-2)[Gal(b1-4)GlcNAc(b1-6)]Man(a1-6)[Gal(b1-4)GlcNAc(b1-2)Man(a1-3)]Man(b1-4)GlcNAc(b1-4)[Fuc(a1-6)]GlcNAc
How it was run: (§1)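 Glycan array binding is given as a within-array Z-score, which can be read as non-binding when negative. The arrays, 3228 of them, came from the Consortium for Functional Glycomics database and were retained only where the protein sequence was available. Z-scores were averaged across arrays of the same protein sequence at different concentrations or buffers and across linkers.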

[2] = target: Gal(b1-4)GlcNAc(b1-2)[Gal(b1-4)GlcNAc(b1-6)]Man(a1-6)[GlcNAc(b1-4)][Gal(b1-4)GlcNAc(b1-2)Man(a1-3)]Man(b1-4)GlcNAc(b1-4)GlcNAc
How it was run: as §1

[3] = target: Gal(b1-4)GlcNAc(b1-2)[Gal(b1-4)GlcNAc(b1-6)]Man(a1-6)[GlcNAc(b1-4)][Gal(b1-4)GlcNAc(b1-2)[Gal(b1-4)GlcNAc(b1-4)]Man(a1-3)]Man(b1-4)GlcNAc(b1-4)[Fuc(a1-6)]GlcNAc
How it was run: as §1

[4] = target: Gal(b1-4)GlcNAc(b1-3)Gal(b1-3)GalNAc
How it was run: as §1

[5] = target: Gal(b1-4)GlcNAc(b1-3)Gal(b1-3)GlcNAc
How it was run: as §1

[6] = target: Gal(b1-4)GlcNAc(b1-3)Gal(b1-4)Glc
How it was run: as §1

[7] = target: Gal(b1-4)GlcNAc(b1-3)Gal(b1-4)GlcNAc
How it was run: as §1

[8] = target: Gal(b1-4)GlcNAc(b1-3)Gal(b1-4)GlcNAc(b1-2)Man(a1-3)[Gal(b1-4)GlcNAc(b1-3)Gal(b1-4)GlcNAc(b1-2)Man(a1-6)]Man(b1-4)GlcNAc(b1-4)GlcNAc
How it was run: as §1

[9] = target: Gal(b1-4)GlcNAc(b1-3)Gal(b1-4)GlcNAc(b1-2)Man(a1-3)[Gal(b1-4)GlcNAc(b1-3)Gal(b1-4)GlcNAc(b1-2)Man(a1-6)]Man(b1-4)GlcNAc(b1-4)[Fuc(a1-6)]GlcNAc
How it was run: as §1

[10] = target: Gal(b1-4)GlcNAc(b1-3)Gal(b1-4)GlcNAc(b1-2)[Gal(b1-4)GlcNAc(b1-3)Gal(b1-4)GlcNAc(b1-6)]Man(a1-6)[Gal(b1-4)GlcNAc(b1-3)Gal(b1-4)GlcNAc(b1-2)Man(a1-3)]Man(b1-4)GlcNAc(b1-4)GlcNAc
How it was run: as §1

[11] = target: Gal(b1-4)GlcNAc(b1-3)Gal(b1-4)GlcNAc(b1-2)[Gal(b1-4)GlcNAc(b1-3)Gal(b1-4)GlcNAc(b1-6)]Man(a1-6)[Gal(b1-4)GlcNAc(b1-3)Gal(b1-4)GlcNAc(b1-2)Man(a1-3)]Man(b1-4)GlcNAc(b1-4)[Fuc(a1-6)]GlcNAc
How it was run: as §1

[12] = target: Gal(b1-4)GlcNAc(b1-3)Gal(b1-4)GlcNAc(b1-3)Gal(b1-4)GlcNAc
How it was run: as §1

[13] = target: Gal(b1-4)GlcNAc(b1-3)Gal(b1-4)GlcNAc(b1-3)Gal(b1-4)GlcNAc(b1-2)Man(a1-3)[Gal(b1-4)GlcNAc(b1-3)Gal(b1-4)GlcNAc(b1-3)Gal(b1-4)GlcNAc(b1-2)Man(a1-6)]Man(b1-4)GlcNAc(b1-4)GlcNAc
How it was run: as §1

[14] = target: Gal(b1-4)GlcNAc(b1-3)Gal(b1-4)GlcNAc(b1-3)Gal(b1-4)GlcNAc(b1-2)Man(a1-3)[Gal(b1-4)GlcNAc(b1-3)Gal(b1-4)GlcNAc(b1-3)Gal(b1-4)GlcNAc(b1-2)Man(a1-6)]Man(b1-4)GlcNAc(b1-4)[Fuc(a1-6)]GlcNAc
How it was run: as §1

[15] = target: Gal(b1-4)GlcNAc(b1-3)Gal(b1-4)GlcNAc(b1-3)Gal(b1-4)GlcNAc(b1-2)[Gal(b1-4)GlcNAc(b1-3)Gal(b1-4)GlcNAc(b1-3)Gal(b1-4)GlcNAc(b1-6)]Man(a1-6)[Gal(b1-4)GlcNAc(b1-3)Gal(b1-4)GlcNAc(b1-3)Gal(b1-4)GlcNAc(b1-2)Man(a1-3)]Man(b1-4)GlcNAc(b1-4)[Fuc(a1-6)]GlcNAc
How it was run: as §1

[16] = target: Gal(b1-4)GlcNAc(b1-3)Gal(b1-4)GlcNAc(b1-3)Gal(b1-4)GlcNAc(b1-3)Gal(b1-4)GlcNAc(b1-2)Man(a1-3)[Gal(b1-4)GlcNAc(b1-3)Gal(b1-4)GlcNAc(b1-3)Gal(b1-4)GlcNAc(b1-3)Gal(b1-4)GlcNAc(b1-2)Man(a1-6)]Man(b1-4)GlcNAc(b1-4)GlcNAc
How it was run: as §1

[17] = target: Gal(b1-4)GlcNAc(b1-3)Gal(b1-4)GlcNAc(b1-3)Gal(b1-4)GlcNAc(b1-3)Gal(b1-4)GlcNAc(b1-2)Man(a1-3)[Gal(b1-4)GlcNAc(b1-3)Gal(b1-4)GlcNAc(b1-3)Gal(b1-4)GlcNAc(b1-3)Gal(b1-4)GlcNAc(b1-2)Man(a1-6)]Man(b1-4)GlcNAc(b1-4)[Fuc(a1-6)]GlcNAc
How it was run: as §1

[18] = target: Gal(b1-4)GlcNAc(b1-3)Gal(b1-4)GlcNAc(b1-3)Gal(b1-4)GlcNAc(b1-3)Gal(b1-4)GlcNAc(b1-2)[Gal(b1-4)GlcNAc(b1-3)Gal(b1-4)GlcNAc(b1-3)Gal(b1-4)GlcNAc(b1-3)Gal(b1-4)GlcNAc(b1-6)]Man(a1-6)[Gal(b1-4)GlcNAc(b1-3)Gal(b1-4)GlcNAc(b1-3)Gal(b1-4)GlcNAc(b1-3)Gal(b1-4)GlcNAc(b1-2)Man(a1-3)]Man(b1-4)GlcNAc(b1-4)[Fuc(a1-6)]GlcNAc
How it was run: as §1

[19] = target: Gal(b1-4)GlcNAc(b1-3)Gal(b1-4)GlcNAc(b1-3)Gal(b1-4)GlcNAc(b1-3)Gal(b1-4)GlcNAc(b1-3)Gal(b1-4)GlcNAc(b1-2)Man(a1-3)[Gal(b1-4)GlcNAc(b1-3)Gal(b1-4)GlcNAc(b1-3)Gal(b1-4)GlcNAc(b1-3)Gal(b1-4)GlcNAc(b1-3)Gal(b1-4)GlcNAc(b1-2)Man(a1-6)]Man(b1-4)GlcNAc(b1-4)GlcNAc
How it was run: as §1

[20] = target: Gal(b1-4)GlcNAc(b1-3)Gal(b1-4)GlcNAc(b1-3)Gal(b1-4)GlcNAc(b1-3)Gal(b1-4)GlcNAc(b1-3)Gal(b1-4)GlcNAc(b1-2)Man(a1-3)[Gal(b1-4)GlcNAc(b1-3)Gal(b1-4)GlcNAc(b1-3)Gal(b1-4)GlcNAc(b1-3)Gal(b1-4)GlcNAc(b1-3)Gal(b1-4)GlcNAc(b1-2)Man(a1-6)]Man(b1-4)GlcNAc(b1-4)[Fuc(a1-6)]GlcNAc
How it was run: as §1

[21] = target: Gal(b1-4)GlcNAc(b1-3)Gal(b1-4)GlcNAc(b1-3)Gal(b1-4)GlcNAc(b1-3)Gal(b1-4)GlcNAc(b1-3)Gal(b1-4)GlcNAc(b1-2)[Gal(b1-4)GlcNAc(b1-3)Gal(b1-4)GlcNAc(b1-3)Gal(b1-4)GlcNAc(b1-3)Gal(b1-4)GlcNAc(b1-3)Gal(b1-4)GlcNAc(b1-6)]Man(a1-6)[Gal(b1-4)GlcNAc(b1-3)Gal(b1-4)GlcNAc(b1-3)Gal(b1-4)GlcNAc(b1-3)Gal(b1-4)GlcNAc(b1-3)Gal(b1-4)GlcNAc(b1-2)Man(a1-3)]Man(b1-4)GlcNAc(b1-4)[Fuc(a1-6)]GlcNAc
How it was run: as §1

[22] = target: Gal(b1-4)GlcNAc(b1-3)Gal(b1-4)GlcNAc(b1-3)Gal(b1-4)GlcNAc(b1-3)Gal(b1-4)GlcNAc(b1-3)Gal(b1-4)GlcNAc(b1-3)Gal(b1-4)GlcNAc(b1-2)Man(a1-3)[Gal(b1-4)GlcNAc(b1-3)Gal(b1-4)GlcNAc(b1-3)Gal(b1-4)GlcNAc(b1-3)Gal(b1-4)GlcNAc(b1-3)Gal(b1-4)GlcNAc(b1-3)Gal(b1-4)GlcNAc(b1-2)Man(a1-6)]Man(b1-4)GlcNAc(b1-4)GlcNAc
How it was run: as §1

[23] = target: Gal(b1-4)GlcNAc(b1-3)Gal(b1-4)GlcNAc(b1-3)GalNAc
How it was run: as §1

B1: SRA-1 (Homo sapiens), P21757 (protein)
chain: MEQWDHFHNQQEDTDSCSESVKFDARSMTALLPPNPKNSPSLQEKLKSFKAALIALYLLVFAVLIPLIGIVAAQLLKWETKNCSVSSTNANDITQSLTGKGNDSEEEMRFQEVFMEHMSNMEKRIQHILDMEANLMDTEHFQNFSMTTDQRFNDILLQLSTLFSSVQGHGNAIDEISKSLISLNTTLLDLQLNIENLNGKIQENTFKQQEEISKLEERVYNVSAEIMAMKEEQVHLEQEIKGEVKVLNNITNDLRLKDWEHSQTLRNITLIQGPPGPPGEKGDRGPTGESGPRGFPGPIGPPGLKGDRGAIGFPGSRGLPGYAGRPGNSGPKGQKGEKGSGNTLTPFTKVRLVGGSGPHEGRVEILHSGQWGTICDDRWEVRVGQVVCRSLGYPGVQAVHKAAHFGQGTGPIWLNEVFCFGRESSIEECKIRQWGTRACSHSEDAGVTCTL
Question: Which “glycan array binding signal (z-score)” value [1] does the source give for B1 here?
Answer: The value was -0.466.

Question: What about the “glycan array binding signal (z-score)” value [2] of the same binder?
Answer: The value was -0.722.

Question: And the “glycan array binding signal (z-score)” value [3]?
Answer: Its value is -0.205.

Question: What about the “glycan array binding signal (z-score)” value [4] of the same binder?
Answer: Its value is -0.604.

Question: What about the “glycan array binding signal (z-score)” value [5] of the same binder?
Answer: The value was -0.508.

Question: What about the “glycan array binding signal (z-score)” value [6] of the same binder?
Answer: The value was -0.167.

Question: And the “glycan array binding signal (z-score)” value [7]?
Answer: Its value is -0.211.

Question: And the “glycan array binding signal (z-score)” value [8]?
Answer: The value was 0.208.

Question: And the “glycan array binding signal (z-score)” value [9]?
Answer: Its value is 0.066.

Question: And the “glycan array binding signal (z-score)” value [10]?
Answer: The value was 0.192.

Question: And the “glycan array binding signal (z-score)” value [11]?
Answer: The value was 0.305.

Question: What about the “glycan array binding signal (z-score)” value [12] of the same binder?
Answer: The value was -0.32.

Question: And the “glycan array binding signal (z-score)” value [13]?
Answer: Its value is 0.251.

Question: And the “glycan array binding signal (z-score)” value [14]?
Answer: Its value is 0.074.

Question: And the “glycan array binding signal (z-score)” value [15]?
Answer: Its value is -0.041.

Question: And the “glycan array binding signal (z-score)” value [16]?
Answer: The value was -0.051.

Question: And the “glycan array binding signal (z-score)” value [17]?
Answer: Its value is 0.096.

Question: What about the “glycan array binding signal (z-score)” value [18] of the same binder?
Answer: Its value is 0.488.

Question: What about the “glycan array binding signal (z-score)” value [19] of the same binder?
Answer: Its value is 0.434.

Question: And the “glycan array binding signal (z-score)” value [20]?
Answer: The value was -0.337.

Question: What about the “glycan array binding signal (z-score)” value [21] of the same binder?
Answer: Its value is 0.801.

Question: What about the “glycan array binding signal (z-score)” value [22] of the same binder?
Answer: The value was 0.603.

Question: What about the “glycan array binding signal (z-score)” value [23] of the same binder?
Answer: The value was -0.228.
